From the supplement of paper PMC4967469

Assays:
Experiment in all cases: Viability of human cancer cell lines after 72 h of drug (GDSC screen)
[1] = compound: Cc1cccc(-c2[nH]c(C(C)(C)C)nc2-c2ccc3c(c2)OCO3)n1 [SB-505124]; settings: top dose 10 µM; top dose inferred
Protocol: (§1)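 Human cancer cell lines in 384-well plates, medium with 10% serum, drug for 72 h over a 256-fold dose range (nine 2-fold or five 4-fold steps up to the top dose). Adherent lines were fixed and stained with the nucleic acid dye Syto60, suspension lines read with resazurin; signal relative to control wells, capped at 0 and 100%. One two-parameter sigmoid per drug and line, fitted in a mixed model over all curves with the slope shared within a line.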

[2] = compound: CC1=C(/C=C/C(C)=C/C=C/C(C)=C/C(=O)O)C(C)(C)CCC1 [Tretinoin]; settings: top dose 10 µM; top dose inferred
Protocol: as §1

[3] = compound: O=C(NCCCNc1nc(Nc2cccc(NC(=O)N3CCCC3)c2)ncc1I)c1cccs1 [BX-795]; settings: top dose 5 µM; top dose inferred
Protocol: as §1

[4] = compound: CCn1c(-c2nonc2N)nc2c(C#CC(C)(C)O)ncc(OC[C@H]3CCCNC3)c21 [GSK690693]; settings: top dose 10.24 µM; top dose inferred
Protocol: as §1

[5] = compound: Oc1cccc(-c2nc(N3CCOCC3)c3oc4ncccc4c3n2)c1 [PI-103]; settings: top dose 10.24 µM
Protocol: as §1

[6] = compound: COc1ccc(N(C(=O)Oc2c(C)cccc2C)c2ccnc(Nc3ccc(N4CCN(C)CC4)cc3)n2)c(OC)c1 [WH-4-023]; settings: top dose 5.12 µM; top dose inferred
Protocol: as §1

[7] = compound: COc1cc2c(NC3CCN(C(C)C)CC3)nc(C3CCCCC3)nc2cc1OCCCN1CCCC1 [UNC0638]
Protocol: as §1

[8] = top dose 20 µM, screen: GDSC drug entry 1236, top dose inferred
[9] = top dose 40 µM, screen: GDSC drug entry 245

Cell Line	AUC [1]	pIC50 [1]	AUC [2]	pIC50 [2]	AUC [3]	pIC50 [3]	AUC [4]	pIC50 [4]	AUC [5]	pIC50 [5]	AUC [6]	pIC50 [6]	AUC [7, 8]	pIC50 [7, 8]	AUC [7, 9]	pIC50 [7, 9]
NCI-H226 (lung squamous cell carcinoma, adherent)	0.986	< 5.00	0.965	< 5.00	0.896	< 5.30	0.987	< 4.99	0.831	5.16	0.871	< 5.29	0.834	4.86	0.699	5.03
NCI-H322M (lung adenocarcinoma, suspension)	0.981	< 5.00	0.958	< 5.00	0.941	< 5.30	0.987	< 4.99	0.744	5.41	0.927	< 5.29	0.914	< 4.70	0.808	4.57
NCI-H345 (small cell lung carcinoma, suspension)	0.986	< 5.00	0.99	< 5.00	0.99	< 5.30	0.99	< 4.99	0.867	5.00	0.988	< 5.29	0.98	< 4.70	0.844	4.51
NCI-H446 (small cell lung carcinoma, semi-adherent)	0.886	< 5.00	0.982	< 5.00	0.918	< 5.30	0.579	5.97	0.293	6.80	0.796	5.59	0.705	5.30	0.618	5.27
NCI-H524 (small cell lung carcinoma, suspension)	0.811	5.34	0.967	< 5.00	0.772	5.76	0.92	< 4.99	0.442	6.34	0.99	< 5.29	0.799	5.07	0.843	4.62
NCI-H526 (small cell lung carcinoma, suspension)	0.988	< 5.00	0.974	< 5.00	0.764	5.76	0.833	5.21	0.63	5.84	0.989	< 5.29	0.989	< 4.70	0.804	4.72
NCI-H720 (lung carcinoid, suspension)	0.989	< 5.00	0.992	< 5.00	0.849	5.49	0.991	< 4.99	0.991	< 4.99	0.989	< 5.29	0.977	< 4.70	0.977	< 4.40
NCI-H747 (large intestine, adherent)	0.942	< 5.00	0.979	< 5.00	0.933	< 5.30	0.777	5.29	0.363	6.61	0.81	5.46	0.73	5.18	0.702	4.97
NCI-H847 (small cell lung carcinoma, adherent)	0.975	< 5.00	0.986	< 5.00	0.871	5.49	0.885	5.12	0.171	7.07	0.984	< 5.29	0.845	4.97	0.797	4.83
NCI-H1092 (small cell lung carcinoma, suspension)	0.976	< 5.00	0.987	< 5.00	0.949	< 5.30	0.918	< 4.99	0.846	5.12	0.983	< 5.29	0.968	< 4.70	0.802	4.70
NCI-H1155 (large cell lung carcinoma, suspension)	0.984	< 5.00	0.973	< 5.00	0.858	5.52	0.98	< 4.99	0.912	4.99	0.988	< 5.29	0.99	< 4.70	0.982	< 4.40
NCI-H1304 (small cell lung carcinoma, suspension)	0.986	< 5.00	0.952	< 5.00	0.973	< 5.30	0.855	5.04	0.474	6.27	0.988	< 5.29	0.903	< 4.70	0.909	< 4.40
NCI-H1395 (lung adenocarcinoma, adherent)	0.973	< 5.00	0.969	< 5.00	0.925	< 5.30	0.946	< 4.99	0.705	5.53	0.922	< 5.29	0.765	5.01	0.764	4.72
NCI-H1436 (small cell lung carcinoma, suspension)	0.948	< 5.00	0.985	< 5.00	0.943	< 5.30	0.87	< 4.99	0.844	5.05	0.985	< 5.29	0.798	4.95	0.605	5.30
NCI-H1648 (lung adenocarcinoma, adherent)	0.939	< 5.00	0.831	5.16	0.929	< 5.30	0.928	< 4.99	0.442	6.36	0.559	6.33	0.937	< 4.70	0.832	4.56
NCI-H1694 (small cell lung carcinoma, suspension)	0.97	< 5.00	0.96	< 5.00	0.876	5.31	0.966	< 4.99	0.816	5.25	0.977	< 5.29	0.964	< 4.70	0.721	4.98

Cell Line	AUC [1]	pIC50 [1]	AUC [2]	pIC50 [2]	AUC [3]	pIC50 [3]	AUC [4]	pIC50 [4]	AUC [5]	pIC50 [5]	AUC [6]	pIC50 [6]	AUC [7, 8]	pIC50 [7, 8]	AUC [7, 9]	pIC50 [7, 9]
NCI-H1770 (non-small cell lung carcinoma, suspension)	0.991	< 5.00	0.988	< 5.00	0.921	< 5.30	0.992	< 4.99	0.992	< 4.99	0.991	< 5.29	0.99	< 4.70	0.874	4.51
NCI-H1836 (small cell lung carcinoma, suspension)	0.967	< 5.00	0.972	< 5.00	0.959	< 5.30	0.961	< 4.99	0.561	6.02	0.957	< 5.29	0.949	< 4.70	0.769	4.78
NCI-H1838 (lung adenocarcinoma, adherent)	0.977	< 5.00	0.948	< 5.00	0.911	< 5.30	0.985	< 4.99	0.937	< 4.99	0.979	< 5.29	0.89	< 4.70	0.938	< 4.40
NCI-H1869 (lung squamous cell carcinoma, adherent)	0.983	< 5.00	0.985	< 5.00	0.903	< 5.30	0.983	< 4.99	0.755	5.41	0.915	< 5.29	0.959	< 4.70	0.893	< 4.40
NCI-H1876 (small cell lung carcinoma, adherent)	0.978	< 5.00	0.962	< 5.00	0.796	5.63	0.898	< 4.99	0.45	6.33	0.982	< 5.29	0.775	5.10	0.804	4.69
NCI-H1975 (lung adenocarcinoma, adherent)	0.981	< 5.00	0.967	< 5.00	0.845	5.35	0.916	< 4.99	0.403	6.48	0.6	6.20	0.832	4.81	0.777	4.74
NCI-H2081 (small cell lung carcinoma, suspension)	0.983	< 5.00	0.987	< 5.00	0.901	< 5.30	0.935	< 4.99	0.727	5.53	0.987	< 5.29	0.889	< 4.70	0.851	4.48
NCI-H2135 (non-small cell lung carcinoma, adherent)	0.99	< 5.00	0.987	< 5.00	0.991	< 5.30	0.989	< 4.99	0.638	5.82	0.974	< 5.29	0.99	< 4.70	0.798	4.74
NCI-H2141 (small cell lung carcinoma, suspension)	0.894	< 5.00	0.99	< 5.00	0.946	< 5.30	0.985	< 4.99	0.66	5.76	0.991	< 5.29	0.953	< 4.70	0.863	4.48
NCI-SNU-1 (stomach, suspension)	0.96	< 5.00	0.979	< 5.00	0.98	< 5.30	0.974	< 4.99	0.489	6.22	0.985	< 5.29	0.821	4.92	0.594	5.34
NCI-SNU-5 (stomach, suspension)	0.984	< 5.00	0.955	< 5.00	0.957	< 5.30	0.989	< 4.99	0.973	< 4.99	0.968	< 5.29	0.854	4.79	0.987	< 4.40
NCI-SNU-16 (stomach, suspension)	0.933	< 5.00	0.969	< 5.00	0.852	5.50	0.991	< 4.99	0.991	< 4.99	0.283	7.07	0.801	5.07	0.94	< 4.40
NEC8 (testis, adherent)	0.987	< 5.00	0.975	< 5.00	0.894	5.36	0.977	< 4.99	0.925	< 4.99	0.917	< 5.29	0.85	4.93	0.643	5.24
NH-12 (neuroblastoma, adherent)	0.971	< 5.00	0.978	< 5.00	0.786	5.61	0.968	< 4.99	0.62	5.84	0.983	< 5.29	0.952	< 4.70	0.79	4.69
NKM-1 (acute myeloid leukaemia, suspension)	0.976	< 5.00	0.866	5.03	0.61	6.20	0.694	5.64	0.155	7.27	0.964	< 5.29	0.755	5.16	0.629	5.24
NMC-G1 (glioma, adherent)	0.884	< 5.00	0.98	< 5.00	0.9	< 5.30	0.95	< 4.99	0.532	6.10	0.849	< 5.29	0.794	4.94	0.687	5.02

pIC50: −log10 of the molar value. A lower IC50 marks a more sensitive line; where the fit passes the top or lowest dose, that dose stands as a limit. AUC is the area under the same curve over the 256-fold range up to the top dose, as a fraction: 1 means no effect, lower means more sensitive. For some assays here: Any top dose called inferred comes from the curve model; the source does not state it. For some assays here: Drugs with an entry number were screened twice under separate entries, and the two screens often disagree.
